Laboratory results as given in PubChem BioAssay AID1851 (National Center for Advancing Translational Sciences (NCATS), 2009).
This list holds what a sample rich in hits left over. Results filed as inconclusive are left out. Calls of active or inactive are those of the source. The call rests on the fitted dose curve; in most records, active means well fitted curve in the direction sought with a large enough effect; inconclusive means small, poorly fitted or top-dose-only effect, or effect the other way; inactive means no such curve, though single readings can be large or run the other way.

Target: Cytochrome P450 2D6 (Homo sapiens) (UniProt P10635)
Chain of UniProt P10635 (P10635 whole entry, looked up): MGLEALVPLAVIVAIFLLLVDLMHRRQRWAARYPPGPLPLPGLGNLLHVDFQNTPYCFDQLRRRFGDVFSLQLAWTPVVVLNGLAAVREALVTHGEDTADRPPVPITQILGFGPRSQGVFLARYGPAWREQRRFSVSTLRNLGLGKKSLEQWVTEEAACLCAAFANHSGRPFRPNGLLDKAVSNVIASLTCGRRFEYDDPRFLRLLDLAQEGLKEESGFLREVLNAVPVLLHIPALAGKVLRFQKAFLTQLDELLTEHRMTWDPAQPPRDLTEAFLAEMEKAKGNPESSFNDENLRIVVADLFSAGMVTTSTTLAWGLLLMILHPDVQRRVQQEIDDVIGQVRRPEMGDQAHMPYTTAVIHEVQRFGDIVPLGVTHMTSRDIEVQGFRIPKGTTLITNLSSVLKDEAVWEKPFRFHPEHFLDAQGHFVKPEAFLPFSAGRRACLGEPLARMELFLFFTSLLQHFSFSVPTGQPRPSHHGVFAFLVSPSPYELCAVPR
Assay: Cytochrome panel assay with activity outcomes
Settings: recombinant CYP, pro-luciferin dealkylation, luminescence, p450-cyp2d6; at 57.1 µM (top of the series) unless noted
On the % scale 0 is the no-effect control and ±100 the full control effect.

Compound	activity, negative = inhibition
COC(=O)C1=C(C)NC(C)=C(C(=O)OC)C1c1ccccc1[N+](=O)[O-]	inactive: 11.1%
CC(=O)[C@@H]1CC[C@H]2[C@H]3CC[C@H]4C[C@@H](O)CC[C@]4(C)[C@@H]3C(=O)C[C@@]12C	inactive: -4.2% [at 25.6 µM]
